Assay results as given in PubChem BioAssay AID485294 (National Center for Advancing Translational Sciences (NCATS), 2010).
Hit rate of the full screen: of about 370,000 compounds, about 150 (0.041%) were called active. The inconclusive results got no clear call from the source; some entries with a clear call stand among them for comparison. Calls follow the shape of the dose curve; as a rule, active = well fitted inhibition curve with a large enough effect; inconclusive = small, poorly fitted or top-dose-only effect; inactive = flat fitted curve, though single readings scatter. No potency is given beside an inconclusive call; the fits are too rough.
Also: nearly all actives have a fitted effect of over 25% in size.
Potency is read from the fitted curve at half-maximal effect; tags tell the direction and shape of the fitted curve.

The molecules below were run against Beta-lactamase (Escherichia coli (strain K12)) (UniProt P00811) (assay: qHTS Inhibitors of AmpC Beta-Lactamase (assay with detergent)). Settings: AmpC hydrolysis of nitrocefin, absorbance 480 nm, 0.01% Triton; series mostly up to 114 µM.
UniProt P00811, sequence (P00811 whole entry, looked up): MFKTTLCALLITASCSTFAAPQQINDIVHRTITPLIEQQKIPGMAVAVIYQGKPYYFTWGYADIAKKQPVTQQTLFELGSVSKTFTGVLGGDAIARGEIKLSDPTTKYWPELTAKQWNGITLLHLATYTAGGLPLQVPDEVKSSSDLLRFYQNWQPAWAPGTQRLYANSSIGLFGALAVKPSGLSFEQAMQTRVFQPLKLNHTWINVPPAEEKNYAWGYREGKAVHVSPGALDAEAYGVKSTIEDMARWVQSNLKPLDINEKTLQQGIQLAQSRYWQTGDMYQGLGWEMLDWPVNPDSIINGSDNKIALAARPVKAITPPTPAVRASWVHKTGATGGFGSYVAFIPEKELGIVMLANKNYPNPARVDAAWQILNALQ
Method in brief: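 AmpC (5.3 nM in the dispensed reagent) in 20 mM phosphate pH 7.0 with 0.01% (detergent screen) or 0.0001% Triton X-100 was preincubated with compounds for 15 min at room temperature. Nitrocefin was then added from an 800 uM solution, and hydrolysis was followed at 480 nm.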
For `COc1ccc(OC)c(S(=O)(=O)n2cnc3ccccc32)c1`, the Potency was inconclusive [inhibitor, full curve].
`CCNC(=O)c1sc2cc(C)ccc2c1Cl` was tested, and the Potency was “inactive”.
For `CCn1nc(NS(=O)(=O)c2ccccc2)c2cc3cccc(C)c3nc21`, the Potency was inconclusive [inhibitor, full curve].
In the case of `CCN(c1ccc(NC(=O)COC(=O)/C=C/c2cccs2)cc1)C(C)C`, the Potency is reported as inconclusive [inhibitor, partial curve].
In the case of `CC12CCC(C/C1=N\OC(=O)c1ccc(F)cc1)C2(C)C` (stereo not given), the Potency is reported as inconclusive [inhibitor, partial curve, poor fit].
`Cc1nc(C(F)(F)F)nc(Nc2ccc(N=Nc3ccccc3)cc2)c1C#N` was tested, and the Potency was inconclusive [inhibitor, full curve, poor fit].
In the case of `Cc1ccc(NC(=O)Nc2nnc(N3CCCC3)s2)cc1C`, the Potency is reported as “inactive”.
`CCC(=O)NCCc1nc2cc(NC(=O)c3cccc(Br)c3)ccc2n1C` was tested, and the Potency was “inactive”.
For `COC(=O)c1ccc(C(=S)N2CCCCC2)cc1`, the Potency was “inactive”.
`O=[N+]([O-])c1ccc(Cl)cc1CN1CCCCCC1` was tested, and the Potency was inconclusive [inhibitor, full curve, poor fit].
In the case of `COc1cc2c(cc1OC)C(c1ccc(Br)cc1)N(C(=O)c1ccccc1C(=O)O)CC2` (stereo not given), the Potency is reported as inconclusive [inhibitor, single point].
With `CCN(CC)C(=O)c1ccc2c(c1)N(Cc1ccc(C(F)(F)F)cc1)C(=O)c1ccccc1S2` the Potency was “inactive”.
In the case of `Cc1ccc(C(=O)Nc2ccc3c(c2)nc2n3CCSC2)cc1`, the Potency is reported as inconclusive [inhibitor, full curve, poor fit].
In the case of `O=C(NCC1CCCO1)c1cc(C(=O)C2CCCCC2)c[nH]1` (stereo not given), the Potency is reported as inconclusive [inhibitor, full curve].
In the case of `COC(=O)CN(C#N)c1nc(N(C)C)nc(N(C)C)n1`, the Potency is reported as inconclusive [inhibitor, partial curve].
In the case of `COc1ccc(C(=O)N2CCN(c3ccccn3)CC2)cc1[N+](=O)[O-]`, the Potency is reported as inconclusive [inhibitor, full curve, poor fit].
With `N#CCCNCC1(c2ccccc2)CCCC1` the Potency was inconclusive [inhibitor, partial curve].
In the case of `O=C(NCCC1=CCCCC1)c1ccc(Cl)c(S(=O)(=O)N2CCCCC2)c1`, the Potency is reported as “inactive”.
In the case of `COc1ccc(N2CCN(C(=O)C3CCN(S(=O)(=O)N4CCOCC4)CC3)CC2)cc1`, the Potency is reported as inconclusive [inhibitor, partial curve, poor fit].
With `COc1ccc(/C=C/C(=O)c2ccc(C(=O)/C=C/c3ccc(OC)c(OC)c3)cc2)cc1OC` the Potency was “inactive”.
